Laboratory results published in publication PMC4336329 (PLoS ONE, 2015).
The campaign covered roughly 310,000 compounds. About 14,000 (4.5%) showed an effect of 50% or more. Effects have a minus sign here. This is one part of the list.

These molecules were tested against human ether-à-go-go-related gene (hERG) potassium channel (human, UniProt Q12809) (assay: primary screen, population patch clamp on CHO cells stably expressing hERG).
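Note: peak tail current of the secondary pulse compared with the same well before compound.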

human ether-à-go-go-related gene (hERG) potassium channel, sequence (Q12809 whole entry, looked up): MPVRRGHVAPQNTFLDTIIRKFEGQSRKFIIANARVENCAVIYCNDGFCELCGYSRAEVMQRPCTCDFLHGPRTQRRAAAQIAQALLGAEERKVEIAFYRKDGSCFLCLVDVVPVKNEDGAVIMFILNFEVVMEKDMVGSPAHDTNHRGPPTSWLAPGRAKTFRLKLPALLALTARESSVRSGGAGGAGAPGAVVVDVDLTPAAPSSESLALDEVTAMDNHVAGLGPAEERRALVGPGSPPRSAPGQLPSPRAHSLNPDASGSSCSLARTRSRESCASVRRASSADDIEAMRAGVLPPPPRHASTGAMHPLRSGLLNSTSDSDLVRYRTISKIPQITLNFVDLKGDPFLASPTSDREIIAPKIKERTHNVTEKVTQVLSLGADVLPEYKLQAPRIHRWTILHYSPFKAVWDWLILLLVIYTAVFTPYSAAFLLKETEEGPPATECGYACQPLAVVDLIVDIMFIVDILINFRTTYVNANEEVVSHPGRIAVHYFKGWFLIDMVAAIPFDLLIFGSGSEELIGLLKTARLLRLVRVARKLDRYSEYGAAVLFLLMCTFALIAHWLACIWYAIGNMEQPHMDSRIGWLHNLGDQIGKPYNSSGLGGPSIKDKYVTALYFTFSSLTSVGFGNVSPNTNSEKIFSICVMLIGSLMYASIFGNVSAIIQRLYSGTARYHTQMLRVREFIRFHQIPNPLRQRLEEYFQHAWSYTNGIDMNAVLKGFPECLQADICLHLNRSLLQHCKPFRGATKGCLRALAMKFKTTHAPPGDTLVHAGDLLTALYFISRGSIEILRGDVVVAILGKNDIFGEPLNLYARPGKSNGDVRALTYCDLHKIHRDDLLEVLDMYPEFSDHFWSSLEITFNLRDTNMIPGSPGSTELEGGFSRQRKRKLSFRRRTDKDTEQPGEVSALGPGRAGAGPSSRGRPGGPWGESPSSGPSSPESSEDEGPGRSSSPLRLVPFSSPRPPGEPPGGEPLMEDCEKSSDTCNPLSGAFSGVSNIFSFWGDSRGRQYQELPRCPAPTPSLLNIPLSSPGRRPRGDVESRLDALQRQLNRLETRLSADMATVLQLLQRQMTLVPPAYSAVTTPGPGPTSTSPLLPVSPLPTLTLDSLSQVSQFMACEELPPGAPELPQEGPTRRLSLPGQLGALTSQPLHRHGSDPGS

| SMILES | hERG current change (%, negative = inhibition) at 10uM |
| --- | --- |
| N#CC1=C(SCC(=O)NCc2ccccc2)NC(=O)CC1c1ccco1 (centres unmarked) | 9.86% |
| CC1(C)CC(=O)C(=Cc2cn(-c3ccccc3)nc2-c2ccc(Cl)cc2)C(=O)C1 | 14.6% |
| CCOC(=O)C(NC(=O)CC(C)C)(Nc1sc2c(c1C(N)=O)CCCC2)C(F)(F)F (centres unmarked) | 14.4% |
| CCN(CC)S(=O)(=O)c1ccc2c(c1)nc(CCC(=O)OCC(=O)N1CCc3ccccc31)n2C | -16.4% |
| CCn1c(CC(=O)Nc2ccccc2)nnc1SCC(=O)N1CCOCC1 | 12.6% |
| Cc1cc(C)c(C)c(S(=O)(=O)N(C)C2CCN(C)CC2)c1C.Cl | -16.5% |
| CCOc1ccc(NC(=O)COc2coc(CN3CCc4ccccc4C3)cc2=O)cc1 | 4.27% |
| CCN(CC)S(=O)(=O)c1ccc2oc(C(=O)NC3CCCc4ccccc43)c(C)c2c1 (centres unmarked) | 2.13% |
| COc1ccc(C(=O)N2CCOC2CNC(=O)C(=O)NCc2ccc3c(c2)OCO3)cc1 (centres unmarked) | 1.53% |
| O=C(NCCSC1CCCCC1)c1ccccc1 | 3.36% |
| COc1ccccc1N1CCN(C(=O)CSc2nc(C)c(C)c(=O)[nH]2)CC1 | 14.8% |
| O=C(Nc1ncc2c(n1)-c1ccccc1OC2)c1ccccc1Cl | -8.91% |
| Cc1ccc(NC(=O)c2cc3nc(C)cc(C)n3n2)cc1 | -4.38% |
| COc1ccc(S(=O)(=O)N2CCCC2CNC(=O)C(=O)Nc2ccc(F)cc2)cc1 (centres unmarked) | -46.3% |
| O=C(OCC(=O)N1CCCC1=O)c1ccc(Cl)cc1[N+](=O)[O-] | -8.32% |
| Cc1nc2cc(NC(=O)N3CCCCC3)ccc2n1C | 4.54% |
| CN1CCN(C(=O)CSc2nc(-c3cccs3)cc(-c3cccs3)c2C#N)CC1 | -17.4% |
| COc1cc(Nc2cccc[n+]2C)cc(OC)c1OC.[I-] | 15.6% |
| CC(=O)c1ccc(N2CCN(C(=O)c3nn(Cc4ccccc4)c(=O)c4ccccc34)CC2)cc1 | -75.1% |

| SMILES | hERG current change (%, negative = inhibition) at 10uM |
| --- | --- |
| CN1C(=O)c2ccc(C(=O)NCc3ccccn3)cc2C1=O | 8.06% |
| Cc1ccc(C(=O)NC(C)c2ccc(-n3ccnc3)cc2)o1 (centres unmarked) | -37.4% |
| CC1(C)Cc2c(C#N)c(N)sc(=S)c2CO1 | -0.142% |
| Cn1c(SCC(=O)Nc2nccs2)nnc1-c1cccnc1 | 2.16% |
| O=C(COC(=O)c1ccc(Cl)nc1)Nc1ccc2c(c1)OCCO2 | 11.7% |
| CCN(CC)CCCNC(=O)c1cc(Cl)c(NC(=O)C2=C(C)OCCS2)cc1OC | -61.5% |
| O=C(N/C=C/c1ccco1)OCc1ccccc1 | 15.6% |
| O=C(NCCCN1CCCC1=O)c1cncc(Br)c1 | 6.26% |
| COc1ccc([N+](=O)[O-])cc1NCc1ccco1 | -9.03% |
| O=S(=O)(N/N=C/c1cccnc1)c1ccc(Cl)c(Cl)c1 | 6.1% |
| Cc1ccnc(NC(=O)C2CCN(S(=O)(=O)c3cccc4nonc34)CC2)c1 | -19% |
| CCOC(=O)C1=C(CC)Nc2ccccc2N=C1NC(=O)Cn1cnc2ccccc2c1=O | 5.84% |
| O=C(c1cccc(S(=O)(=O)Nc2ccccc2Cl)c1)N1CCCCCC1 | -23.3% |
| COc1cc(C(=O)NCC(=O)N2CCN(S(=O)(=O)c3ccccc3)CC2)cc(OC)c1OC | 15.9% |
| O=C(O)c1ccc(N2C(=O)C3ON(c4ccccc4)C(c4ccccc4F)C3C2=O)cc1 (centres unmarked) | 17.7% |
| O=C(CCC(=O)Nc1ccc(F)cc1)N/N=C/c1cc([N+](=O)[O-])ccc1O | 7.83% |
| CC(C)CC(=O)NC(=S)N1CCN(c2ccc([N+](=O)[O-])cc2Cl)CC1 | -30.9% |
| Cc1ccc(C)c(CSc2nc3[nH]ncc3c(=O)[nH]2)c1 | 0.0505% |
| CCOc1cc(OCC)cc(C(=O)NCc2ccco2)c1 | -3% |

| SMILES | hERG current change (%, negative = inhibition) at 10uM |
| --- | --- |
| C=C(C)CN(CC)c1nc(N)c(C#N)c(CC#N)c1C#N | -17.8% |
| COC(=O)c1ccccc1NC(=O)c1cccc(COc2ccccc2Cl)c1 | 10.6% |
| Oc1c(Cl)cc(Cl)cc1Sc1cc(Cl)cc(Cl)c1O | 20.8% |
| CCCCN(CCCC)CC(O)COc1ccccc1Br.Cl (centres unmarked) | -40.6% |
| NC(=O)CSc1nnc(-c2ccncc2)n1CCc1ccccc1 | 11.2% |
| O=C(CSc1nc2ccsc2c(=O)n1CC1CCC(C(=O)O)CC1)NCCc1ccc(Cl)cc1 (centres unmarked) | -3.86% |
| COc1ccc(CNC(=O)[C@H](C)N2C(=O)N3CCc4c([nH]c5ccc(OC)cc45)[C@@]3(C)C2=O)cc1 | 9.36% |
| CCCCNc1ncnc2sc3c(c12)CCN(CCC)C3 | -76% |
| CCc1ccc(N(C2C=CS(=O)(=O)C2)S(=O)(=O)c2ccccc2)cc1 (centres unmarked) | 3.99% |
| CSCCC(NC(=O)c1ccco1)C(=O)OCC(=O)N1c2ccccc2NC(=O)C1(C)C (centres unmarked) | -7.21% |
| CCOc1cc(NS(=O)(=O)c2ccc(OC)cc2)c(OCC)cc1NC(=O)c1ccco1 | -13.9% |
| Cc1cc(CNC(=O)CC2C(=O)NCCN2CC(C)(C)C)nn1C (centres unmarked) | 14.2% |
| Cc1cccc(NC(=O)c2cccc(C(=O)Nc3cccc(C)c3)c2)c1 | 22.9% |
| CCN(CC(=O)NCC1CCCO1)S(=O)(=O)c1ccc2ccccc2c1 (centres unmarked) | 11.9% |
| COc1ccc(CNC(=O)CNS(=O)(=O)c2cccs2)cc1 | 13.2% |
| CCOC(=O)C1(c2ccccc2)CCN(CCC(=O)Nc2ccc(F)cc2)CC1 | -36.1% |
| CNC(=O)c1ccc(-c2ccccc2)s1 | 5.46% |
| O=C(NCc1ccccc1Cl)C1CCN(S(=O)(=O)c2ccc(N3CCCC3=O)cc2)CC1 | 15.7% |
